From the supplement of paper PMC8512760
Structures can show the parent of a compound that is named as a salt. The list shows a part of the results. Most values come without repeats; read them as rough.

Assays:
Assay in all cases: cell viability relative to vehicle (% of vehicle); basal-like triple-negative breast cancer lines; higher = less cytotoxic
Conditions in all cases: 10 µM; 72 h
[1] = tested on: HCC-1143
[2] = tested on: HCC-1187
[3] = tested on: MDA-468
[4] = tested on: SUM-149
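Note: stably firefly luciferase-GFP labeled cells in 96-well plates, viability read as luciferase photon flux after d-luciferin addition, treated wells normalized to vehicle wells, single-dose high-throughput screen.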

Row | SMILES | cell viability [1] | cell viability [2] | cell viability [3] | cell viability [4]
1 | C=CCNC(N)=S [Allylthiourea] | 74.1 | 88 | 120 | 134
2 | CCCCOc1cc(C(=O)NCCN(CC)CC)c2ccccc2n1.Cl [Dibucaine (Cinchocaine) HCl] | 84.9 | 97.3 | 101 | 89.6
3 | CN(C)CCN1C(=O)c2cccc3cc(N)cc(c23)C1=O [Amonafide] | 112 | 46.6 | 66.5 | 70.7
4 | N=C(NCCCCCCNC(=N)NC(=N)Nc1ccc(Cl)cc1)NC(=N)Nc1ccc(Cl)cc1 [Chlorhexidine digluconate] | 95.9 | 86.6 | 102 | 115
5 | CN1CCC(=C2c3ccccc3CCn3c(C=O)cnc32)CC1 [Alcaftadine] | 101 | 102 | 113 | 121
6 | CC12CCC(O)CC1=CCC1C2CCC2(C)C(n3cnc4ccccc43)=CCC12 (stereo not drawn) | 73.9 | 96.4 | 133 | 90.4
7 | CC(C)NCC(O)c1ccc(NS(C)(=O)=O)cc1.Cl (stereo not drawn) [Sotalol] | 79.2 | 102 | 98.1 | 130
8 | NNC(=O)c1ccncc1.Nc1ccc(C(=O)O)c(O)c1 [Pasiniazid] | 71 | 108 | 115 | 86.6
9 | CN1CCN(CCCN2c3ccccc3Sc3ccc(Cl)cc32)CC1 [Prochlorperazine] | 86.2 | 104 | 113 | 70.4
10 | NC(=O)c1ncn(C2OC(CO)C(O)C2O)n1 (stereo not drawn) [Ribavirin] | 107 | 104 | 107 | 134
11 | CC(CCC(=O)O)C1CCC2C3C(O)CC4CC(O)CCC4(C)C3CCC12C (stereo not drawn) [Ursodiol] | 81 | 85.8 | 94 | 119
12 | Cc1[nH]c(C=C2C(=O)Nc3ccccc32)c(C)c1CCC(=O)O [TSU-68 (SU6668,Orantinib)] | 84.5 | 92.7 | 73 | 123
13 | CC(C)CC(N)=O [Isovaleramide] | 71.6 | 89.2 | 104 | 92.3
14 | CC1(C)SC2C(NC(=O)Cc3ccccc3)C(=O)N2C1C(=O)[O-].[Na+] (stereo not drawn) [Penicillin G Sodium] | 91.8 | 103 | 106 | 89.8
15 | CNNCc1ccc(C(=O)NC(C)C)cc1.Cl [Procarbazine HCl] | 105 | 85.6 | 115 | 124
16 | CC(=O)Oc1ccccc1C(=O)O [Aspirin (Acetylsalicylic acid)] | 96.8 | 78.6 | 92.7 | 119
17 | Nc1ccn([C@@H]2O[C@H](CO)[C@@H](O)C2(F)F)c(=O)n1 [Gemcitabine HCl] | 72.5 | 64 | 46.2 | 131
18 | NCCC(O)(P(=O)(O)O)P(=O)(O)O [Pamidronate] | 92.1 | 99.9 | 118 | 88.4
19 | CC12CCC3c4ccc(O)cc4CC(CCCCCCCCCS(=O)CCCC(F)(F)C(F)(F)F)C3C1CCC2O (stereo not drawn) [Fulvestrant] | 98.8 | 84.4 | 67.3 | 101
20 | O=C1C(=O)c2ccccc2C(O)=C1C1CCC(c2ccc(Cl)cc2)CC1 (stereo not drawn) [Atovaquone] | 80 | 86.7 | 90.3 | 88.2
21 | CC1(C)CCC(CN2CCN(c3ccc(C(=O)NS(=O)(=O)c4ccc(NCC5CCOCC5)c([N+](=O)[O-])c4)c(Oc4cnc5[nH]ccc5c4)c3)CC2)=C(c2ccc(Cl)cc2)C1 | 61.3 | 59.7 | 93.3 | 58.4
22 | Cc1ccc(F)c(NC(=O)Nc2ccc(-c3cccc4[nH]nc(N)c34)cc2)c1 [Linifanib (ABT-869)] | 99.5 | 64.2 | 88.6 | 130
23 | COC(=O)c1ccc2c(c1)NC(=O)C2=C(Nc1ccc(N(C)C(=O)CN2CCN(C)CC2)cc1)c1ccccc1 [Nintedanib (BIBF 1120)] | 64.8 | 86.1 | 117 | 77.7
24 | CC(=O)[N-]S(=O)(=O)c1ccc(N)cc1.[Na+] [Sulfacetamide Sodium] | 74.8 | 78.3 | 94.6 | 104
25 | CC(C)(Sc1cc(C(C)(C)C)c(O)c(C(C)(C)C)c1)Sc1cc(C(C)(C)C)c(O)c(C(C)(C)C)c1 [Probucol] | 74.3 | 79.7 | 102 | 107
26 | CCC1C(O)C2C3CCC(C(C)CCC(=O)O)C3(C)CCC2C2(C)CCC(O)CC12 (stereo not drawn) [Obeticholic Acid] | 70.9 | 90.9 | 64 | 96.5

Row | SMILES | cell viability [1] | cell viability [2] | cell viability [3] | cell viability [4]
27 | COc1cc2nc(N3CCN(C(=O)c4ccco4)CC3)nc(N)c2cc1OC.Cl [Prazosin HCl] | 103 | 44.5 | 48.7 | 116
28 | O=C(CCCN1CC=C(n2c(=O)[nH]c3ccccc32)CC1)c1ccc(F)cc1 [Droperidol] | 72.2 | 93 | 106 | 108
29 | CC1=NN(c2ccccc2)C(=O)C1 [Edaravone] | 83 | 122 | 43.1 | 112
30 | CCCCCOC(=O)Nc1nc(=O)n(C2OC(C)C(O)C2O)cc1F (stereo not drawn) [Capecitabine] | 109 | 107 | 118 | 105
31 | CC(C)c1c(C(=O)Nc2ccccc2)c(-c2ccccc2)c(-c2ccc(F)cc2)n1CCC(O)CC(O)CC(=O)[O-].CC(C)c1c(C(=O)Nc2ccccc2)c(-c2ccccc2)c(-c2ccc(F)cc2)n1CCC(O)CC(O)CC(=O)[O-].[Ca+2] (stereo not drawn) [Atorvastatin Calcium] | 79.6 | 41.5 | 32.7 | 71.6
32 | Nc1ccc(S(=O)(=O)c2ccc(N)cc2)cc1 [Dapsone] | 121 | 107 | 99 | 152
33 | CN1C2=CC(=O)C(=NNC(N)=O)C=C2CC1S(=O)(=O)[O-].[Na+] (stereo not drawn) [Carbazochrome sodium sulfonate (AC-17)] | 78.4 | 75.2 | 106 | 118
34 | CCCc1ncc(C[n+]2ccccc2C)c(N)n1.Cl.[Cl-] [Amprolium HCl] | 95.6 | 87.2 | 101 | 111
35 | CCC(Nc1ncnc2nc[nH]c12)c1nc2cccc(F)c2c(=O)n1-c1ccccc1 (stereo not drawn) [CAL-101 (Idelalisib, GS-1101)] | 80.9 | 78.9 | 56.2 | 94.3
36 | OC(Cn1cncn1)(Cn1cncn1)c1ccc(F)cc1F [Fluconazole] | 82 | 94.1 | 100 | 115
37 | O=C(O)C=CC(=O)O.OCCOCCN1CCN(C2=Nc3ccccc3Sc3ccccc32)CC1.OCCOCCN1CCN(C2=Nc3ccccc3Sc3ccccc32)CC1 [Quetiapine Fumarate] | 114 | 126 | 99.3 | 97.8
38 | O=N[O-].[Na+] [Sodium Nitrite] | 95.8 | 110 | 108 | 91.9
39 | CCCc1nc(C)c2c(=O)nc(-c3cc(S(=O)(=O)N4CCN(CC)CC4)ccc3OCC)[nH]n12 [Vardenafil] | 85.8 | 80.4 | 97.6 | 139
40 | COc1cc2c(cc1O)CCC1C2CCC2(C)C(O)CCC12 (stereo not drawn) [2-Methoxyestradiol (2-MeOE2)] | 115 | 44.1 | 105 | 174
41 | CCOc1cc(C(CS(C)(=O)=O)N2C(=O)c3cccc(NC(C)=O)c3C2=O)ccc1OC (stereo not drawn) | 98.3 | 75.8 | 90.8 | 122
42 | COc1cc2nc(N3CCN(C(=O)C4CCCO4)CC3)nc(N)c2cc1OC.Cl.O.O (stereo not drawn) [Terazosin HCl] | 86.3 | 107 | 98.7 | 164
43 | CC(O)C1C(=O)N2C(C(=O)O)=C(SC3CNC(CNS(N)(=O)=O)C3)C(C)C12.O (stereo not drawn) [Doripenem Hydrate] | 88 | 90.1 | 85.2 | 102
44 | COC(c1ccccc1)(c1ccccc1)C(Oc1nc(C)cc(C)n1)C(=O)O (stereo not drawn) [Ambrisentan] | 81.1 | 91.6 | 89 | 94.8
45 | CNC(=O)c1ccc(N2C(=S)N(c3ccc(C#N)c(C(F)(F)F)c3)C(=O)C2(C)C)cc1F [MDV3100 (Enzalutamide)] | 88.2 | 87 | 82.3 | 123
46 | O=C(CCCN1CCC(O)(c2ccc(Cl)cc2)CC1)c1ccc(F)cc1 [Haloperidol] | 80.7 | 90.2 | 115 | 93.4
47 | CS(=O)(=O)O.Cc1c(O)cccc1C(=O)NC(CSc1ccccc1)C(O)CN1CC2CCCCC2CC1C(=O)NC(C)(C)C (stereo not drawn) [Nelfinavir Mesylate] | 91.5 | 102 | 80.7 | 116
48 | CCC1=CC2CN(C1)Cc1c([nH]c3ccccc13)C(C(=O)OC)(c1cc3c(cc1OC)N(C)C1C(O)(C(=O)OC)C(OC(C)=O)C4(CC)C=CCN5CCC31C54)C2.O=C(O)C(O)C(O)C(=O)O.O=C(O)C(O)C(O)C(=O)O (stereo not drawn) [Vinorelbine ditartrate] | 61.2 | 52.4 | 93.5 | 88.2
49 | CN1CCN(CCCN2c3ccccc3Sc3ccc(C(F)(F)F)cc32)CC1.Cl.Cl [Trifluoperazine 2HCl] | 81.2 | 85.8 | 102 | 69
50 | O=c1cc[nH]c(=S)[nH]1 [2-Thiouracil] | 76.3 | 85.4 | 109 | 119
51 | Brc1c(NC2=NCCN2)ccc2nccnc12.O=C(O)C(O)C(O)C(=O)O [Brimonidine Tartrate] | 94 | 112 | 115 | 92.5
52 | Cc1nc(=O)c2cc(CN(C)c3ccc(C(=O)NC(CCC(=O)O)C(=O)O)s3)ccc2[nH]1 (stereo not drawn) [Raltitrexed] | 62.9 | 77.8 | 87.6 | 135
